# Measured values: the supplement of paper PMC3334620
# In all, about 33,000 sequences were measured (“E-score (-0.5 to 0.5)”: median about -0.012, highest 2% from about 0.29 on). The list shows a part of the results.
# Target: T1, Ybr033w (UniProt P38073)
# T1 sequence: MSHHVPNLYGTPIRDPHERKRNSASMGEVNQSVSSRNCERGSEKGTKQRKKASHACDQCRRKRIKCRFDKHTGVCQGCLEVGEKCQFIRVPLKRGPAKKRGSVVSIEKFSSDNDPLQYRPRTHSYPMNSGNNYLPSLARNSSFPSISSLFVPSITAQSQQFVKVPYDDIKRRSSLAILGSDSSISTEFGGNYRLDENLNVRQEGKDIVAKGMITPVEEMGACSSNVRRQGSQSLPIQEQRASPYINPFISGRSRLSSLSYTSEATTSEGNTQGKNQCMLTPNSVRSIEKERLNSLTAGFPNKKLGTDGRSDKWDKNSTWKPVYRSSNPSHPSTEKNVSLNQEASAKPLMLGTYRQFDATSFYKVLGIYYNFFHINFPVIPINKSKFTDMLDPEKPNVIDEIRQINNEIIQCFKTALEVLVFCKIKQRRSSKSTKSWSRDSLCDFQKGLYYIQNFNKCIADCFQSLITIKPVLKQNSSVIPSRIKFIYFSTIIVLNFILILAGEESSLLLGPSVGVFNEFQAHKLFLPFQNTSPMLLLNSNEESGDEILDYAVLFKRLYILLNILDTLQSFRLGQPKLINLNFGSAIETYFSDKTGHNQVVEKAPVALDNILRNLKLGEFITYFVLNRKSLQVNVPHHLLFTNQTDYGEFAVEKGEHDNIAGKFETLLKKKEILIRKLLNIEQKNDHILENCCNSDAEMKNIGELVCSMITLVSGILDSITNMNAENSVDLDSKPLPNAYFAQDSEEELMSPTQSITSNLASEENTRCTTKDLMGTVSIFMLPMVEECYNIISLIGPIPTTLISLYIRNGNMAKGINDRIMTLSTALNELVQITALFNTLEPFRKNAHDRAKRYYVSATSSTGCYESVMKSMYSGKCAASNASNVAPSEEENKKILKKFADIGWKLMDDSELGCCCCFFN
# Experiment: PBM E-score (8-mer binding enrichment) (E-score (-0.5 to 0.5)); higher = stronger / more preferred TF binding; most listed sequences are background and not binding sites
# Settings: protein concentration: 200 nM; construct: GST-full length
# How it was run: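 Each ungapped eight-base word and its reverse complement, pooled, received an E-score from the Universal PBM Analysis Suite. Underlying scans, normalised with masliner, recorded fluorescent anti-GST bound to GST-tagged yeast transcription factors. These were applied at about 100-200 nM to universal all-10-mer Agilent arrays double-stranded by primer extension.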
row,Sequence,PBM E-score
1,AGATCTCC,-0.121
2,AGGCCGGG,-0.3
3,ATACCGGA,0.055
4,CGCAGAAG,-0.00752
5,CGAAACGC,-0.224
6,GAATGCCA,-0.112
7,AGTAGCGG,0.175
8,ATCCTTTC,0.0992
9,ACTGTCGA,-0.149
10,GACGTCGA,0.0559
11,ACAGACAG,0.134
12,ACCAGTGG,-0.0801
13,GGCCTAAA,-0.154
14,ACAGTGGT,-0.0815
15,CCGATCTA,-0.108
16,GGCGGGGA,0.149
17,ATATTAAG,0.285
18,GCAACGCC,-0.171
19,AAATGACC,0.0697
20,CACTGGTC,-0.167
21,AACGGCCA,0.113
22,AAAACTTT,0.134
23,ACACGCGT,0.133
24,CGGTTACC,-0.0541
25,GCGTCAAA,0.0113

row,Sequence,PBM E-score
1,AGTTGCTC,-0.15
2,AGCCATCC,-0.216
3,CTGAACAC,0.0553
4,GCGTAGGA,-0.0382
5,CACAGCCA,-0.174
6,AGCTGGGA,-0.155
7,GAGTACCC,-0.135
8,CGCCCAGC,-0.0661
9,AGGCCGTC,-0.316
10,CTACCTGC,-0.0433
11,CACGACCA,-0.0661
12,ATCCGAGA,0.115
13,AGGTATAG,0.0943
14,AACCCACT,-0.0101
15,GGGGGTGA,-0.173
16,CACCGGGC,-0.258
17,AGGAGGAT,0.066
18,AAGCCTAC,0.0593
19,CCAGCGAG,-0.0662
20,GCTTGTCC,-0.0427
21,ACCAGCCT,-0.189
22,ATCAATTC,0.125
23,GTTAAAAA,0.214
24,CCCGCTTC,-0.221
25,CTTGGAAA,0.223

row,Sequence,PBM E-score
1,GTTGCGCA,-0.165
2,TGTCCAAA,0.0758
3,ATTCCGTC,0.106
4,AAGACCTT,-0.0118
5,GTGTCCGA,-0.138
6,CCATGTCA,-0.0626
7,GGCAGCCC,-0.398
8,GAAGGCAC,-0.122
9,AGCAAGCG,-0.144
10,GGGGACAC,-0.39
11,CTTAGTGC,0.0606
12,CCTTGGAC,-0.181
13,ACAGGCAT,-0.2
14,AGGATCGA,-0.143
15,AGCCGGAG,0.161
16,CCTGAACC,0.0631
17,GTATACAC,0.00773
18,ATGGCGTC,-0.128
19,AAACGTGC,-0.156
20,CGAATTAA,0.112
21,CCATGTCG,-0.0501
22,AGCTTCCG,-0.00753
23,CCGGACCA,-0.0432
24,ACAAGCCC,-0.204
25,AAGTATAT,0.302

row,Sequence,PBM E-score
1,ACTTGCGA,0.196
2,ATCAGTAG,-0.012
3,ATCCGACC,0.0188
4,AGGTAAAG,0.195
5,ACAGTTGA,0.0196
6,CATGGACC,-0.13
7,ACCCCATC,-0.241
8,AATTACTG,0.0636
9,ACTGCGCA,-0.0973
10,CCCATAAC,0.0146
11,AGTTTATA,0.215
12,CCCAGGGA,-0.285
13,TGGAGTAA,0.232
14,CGAAATCC,0.127
15,CGCTAACA,0.00356
16,ACATATGC,-0.0708
17,CGAGTATA,0.0822
18,ATATTTTA,0.3
19,TCTTGCAA,0.0947
20,AGACCGAC,-0.0756
21,GCCACCGA,-0.256
22,ACGTTATC,0.00974
23,AGCACTGA,0.0694
24,ATCCTGAC,0.00908
25,AACAGCCT,-0.153

row,Sequence,PBM E-score
1,ATGGGTTA,0.237
2,GGCCCGAA,-0.074
3,AGAGAGAT,0.0882
4,CCGCTTCA,-0.0692
5,CAGACTTC,-0.168
6,AGGAGGTA,-0.0597
7,AGCACGCC,-0.0217
8,GCAGACAA,0.148
9,GGTCCAAA,-0.108
10,ATTTTAGA,0.0456
11,AGACCCAC,-0.218
12,ACCGCGCT,-0.0624
13,ACTGCGGA,-0.00461
14,ATCTGCAA,-0.0116
15,ACTCAGCT,-0.107
16,CCGACTGC,-0.129
17,AGGAACGA,-0.269
18,ACTCTCGC,0.0605
19,AGATATGG,0.138
20,CCCTGAAA,-0.0844
21,CCTGTAAA,-0.0517
22,AAAGCCAA,0.125
23,CGCGAAGA,0.0545
24,ACTTTTAA,0.125
25,CCACGAGC,-0.158

row,Sequence,PBM E-score
1,AGTTTCCC,-0.024
2,GATCGGGC,-0.169
3,ATTCGAGG,-0.0758
4,CTCAACAA,0.187
5,GATCCTAA,-0.0174
6,ATCTTTGG,0.0693
7,CCAGAGGG,-0.113
8,ATATTACA,0.256
9,GACATCCC,-0.0875
10,AGTCTAGC,-0.148
11,AATATAAA,0.344
12,GAATCGTC,0.0535
13,GGCAGAAC,-0.0491
14,CGGTTGGC,0.0939
15,CTTGGTAA,0.166
16,CAGTGCAG,-0.0894
17,CGTAGCCA,-0.182
18,ACGCACGC,0.078
19,CTAGGTGA,-0.186
20,GCGCTTGA,0.0547
21,AAACCTGA,0.111
22,ACTGAAGG,-0.0736
23,ATGTACAT,0.049
24,TTGGACAA,0.0435
25,CGTACCAG,-0.0586

row,Sequence,PBM E-score
1,AGCCGTCA,0.0945
2,AGCCACGG,-0.204
3,AACCATGG,-0.104
4,AGATCGTA,-0.183
5,ATGGTAAT,0.19
6,CAATAATC,0.171
7,AAAGGAGG,-0.206
8,CGAGGGCC,-0.267
9,ATGATCAT,0.0795
10,ACGAACGT,-0.0234
11,CATAGACG,-0.163
12,AGGCCGGA,-0.0543
13,GATACACC,0.209
14,CGGAAACA,0.0951
15,GAAGTCTC,-0.188
16,GCGCGAGA,0.108
17,CTTCTTTC,-0.035
18,TAGACCTA,-0.0235
19,CGTCAAGA,-0.0428
20,CTCGGATA,0.108
21,GCTTAAGC,0.18
22,CGTAAACC,-0.0609
